Source: PubChem BioAssay AID2546 (National Center for Advancing Translational Sciences (NCATS), 2010)
The campaign covered roughly 310,000 compounds. About 11,000 (3.5%) were called active. The inconclusive results got no clear call from the source; some entries with a clear call stand among them for comparison. The call rests on the fitted dose curve; in most records, active means well fitted inhibition curve with a large enough effect; inconclusive means small, poorly fitted or top-dose-only effect, or effect the other way; inactive means flat fitted curve, though single readings scatter. No potency is given beside an inconclusive call; the fits are too rough.

experiment: VP16 counterscreen qHTS for inhibitors of ROR gamma transcriptional activity; details: Drosophila S2 Gal4-VP16 UAS-luciferase, luminescence, 20 h; series mostly up to 53.6 µM;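 further: Gal4-VP16 expression switched on by copper sulfate through the metallothionein promoter; nearly all actives have a fitted effect of over 50% in size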
Potency means the concentration at half of the fitted maximal effect; tags describe the fitted curve by direction and shape.

Compound | Potency
COc1ccc(OC)c(S(=O)(=O)N2CCCC(C(=O)N3CCCC3)C2)c1 (stereo unspecified) | inactive
Cc1ccc2nc(-c3ccc(NC(=O)C4CCCO4)cc3)[nH]c2c1 (stereo unspecified) | active: 7.08 µM
O=C(CN1CCc2ccccc21)NC(=O)NCc1ccccc1 | inactive
Cc1cc(C(F)F)n2nc(C(=O)Nc3sc4c(c3C(N)=O)CCC4)nc2n1 | inactive
COc1ccc(OC)c(C(=O)C2COC(=O)C2)c1 (stereo unspecified) | inconclusive [inhibitor, single point]
C=CCNC(=S)NNC(=O)c1ccc2c(c1)OCO2 | inconclusive [inhibitor, single point]
COc1cccc(-c2nc(N3CCN(C)CC3)c3ccccc3n2)c1O | inconclusive [inhibitor, single point]
Cc1ccc(S(=O)(=O)N2CCN(C(=O)COC(=O)c3ccc(C(C)(C)C)cc3)CC2)c(C)c1 | inconclusive [inhibitor, single point]
Cn1c(-c2ccc3nc(N)sc3c2)nc2cc(N)ccc21 | inconclusive [inhibitor, single point]
COc1ccc(C(Nc2ccccn2)c2c(NC(=O)c3ccco3)sc(C)c2C)cc1 (stereo unspecified) | inconclusive [activator, full curve, poor fit]
COc1cc(/C=N/NC(=O)c2ccc(N(C)S(=O)(=O)c3ccccc3)cc2)cc(OC)c1OC | inconclusive [activator, single point]
CCn1c(=O)cc(O)c2ccccc21 | inactive
COc1ccccc1OCCCn1c(C)c(C#N)c2ccccc21 | inactive
O=C(NNC1=Nc2ccccc2SC1)c1ccccc1F | active: 0.708 µM
CC(C)CCOP(=O)(c1ccc(N(C)C)cc1)C(O)c1c(Cl)cccc1Cl (stereo unspecified) | inactive
O=C(NN=C1CCCCCC1)c1cc2ccccc2cc1O | inconclusive [inhibitor, single point]
Cc1nn(CCCC(=O)NCc2ccc(Cl)cc2)c(C)c1[N+](=O)[O-] | inactive
COc1ccccc1COc1ccc2c(C)c(CCC(=O)O)c(=O)oc2c1C | inconclusive [inhibitor, partial curve]
COc1ccc(N2CCN(C(=O)CCNC(=O)c3ccc(C(C)(C)C)cc3)CC2)cc1 | inactive
COC(=O)Cn1cc(/C=C/[N+](=O)[O-])c2ccccc21 | inconclusive [inhibitor, single point]
Cc1[nH]n(-c2ccccc2)c(=O)c1/C=N/N(C)c1ccccc1 | inconclusive [inhibitor, single point]
